# Measurements from the supplement of paper PMC8728848.
# This is one part of the list.
# B1: PRKCE (Homo sapiens), Q02156 (protein)
# chain: MVVFNGLLKIKICEAVSLKPTAWSLRHAVGPRPQTFLLDPYIALNVDDSRIGQTATKQKTNSPAWHDEFVTDVCNGRKIELAVFHDAPIGYDDFVANCTIQFEELLQNGSRHFEDWIDLEPEGRVYVIIDLSGSSGEAPKDNEERVFRERMRPRKRQGAVRRRVHQVNGHKFMATYLRQPTYCSHCRDFIWGVIGKQGYQCQVCTCVVHKRCHELIITKCAGLKKQETPDQVGSQRFSVNMPHKFGIHNYKVPTFCDHCGSLLWGLLRQGLQCKVCKMNVHRRCETNVAPNCGVDARGIAKVLADLGVTPDKITNSGQRRKKLIAGAESPQPASGSSPSEEDRSKSAPTSPCDQEIKELENNIRKALSFDNRGEEHRAASSPDGQLMSPGENGEVRQGQAKRLGLDEFNFIKVLGKGSFGKVMLAELKGKDEVYAVKVLKKDVILQDDDVDCTMTEKRILALARKHPYLTQLYCCFQTKDRLFFVMEYVNGGDLMFQIQRSRKFDEPRSRFYAAEVTSALMFLHQHGVIYRDLKLDNILLDAEGHCKLADFGMCKEGILNGVTTTTFCGTPDYIAPEILQELEYGPSVDWWALGVLMYEMMAGQPPFEADNEDDLFESILHDDVLYPVWLSKEAVSILKAFMTKNPHKRLGCVASQNGEDAIKQHPFFKEIDWVLLEQKKIKPPFKPRIKTKRDVNNFDQDFTREEPVLTLVDEAIVKQINQEEFKGFSYFGEDLMP
# How the values were obtained:
# Assay in all cases: glycan array binding signal (z-score within array); higher = stronger binding
# Conditions in all cases: glycan notation: IUPAC condensed, linker removed
# [1] = target: Gal(b1-4)GlcNAc(b1-2)[Gal(b1-4)GlcNAc(b1-4)]Man(a1-3)[GlcNAc(b1-4)][Gal(b1-4)GlcNAc(b1-2)Man(a1-6)]Man(b1-4)GlcNAc(b1-4)GlcNAc
# Summary of the method: (§1)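 Arrays were curated from the Consortium for Functional Glycomics database, 3228 in total, and kept only where the protein sequence was available. Binding is expressed as a within-array Z-score. This score was averaged across arrays of the same protein sequence at different concentrations or buffers and across linkers, and negative values can be read as non-binding.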
# [2] = target: Gal(b1-4)GlcNAc(b1-2)[Gal(b1-4)GlcNAc(b1-4)]Man(a1-3)[GlcNAc(b1-4)][Gal(b1-4)GlcNAc(b1-2)[Gal(b1-4)GlcNAc(b1-6)]Man(a1-6)]Man(b1-4)GlcNAc(b1-4)GlcNAc
# Summary of the method: as §1
# [3] = target: Gal(b1-4)GlcNAc(b1-2)[Gal(b1-4)GlcNAc(b1-4)]Man(a1-3)[GlcNAc(b1-4)][Gal(b1-4)GlcNAc(b1-2)[Gal(b1-4)GlcNAc(b1-6)]Man(a1-6)]Man(b1-4)GlcNAc(b1-4)[Fuc(a1-6)]GlcNAc
# Summary of the method: as §1
# [4] = target: Gal(b1-4)GlcNAc(b1-2)[Gal(b1-4)GlcNAc(b1-6)]Man(a1-6)[Gal(b1-4)GlcNAc(b1-2)Man(a1-3)]Man(b1-4)GlcNAc(b1-4)GlcNAc
# Summary of the method: as §1
# [5] = target: Gal(b1-4)GlcNAc(b1-2)[Gal(b1-4)GlcNAc(b1-6)]Man(a1-6)[Gal(b1-4)GlcNAc(b1-2)Man(a1-3)]Man(b1-4)GlcNAc(b1-4)[Fuc(a1-6)]GlcNAc
# Summary of the method: as §1
# [6] = target: Gal(b1-4)GlcNAc(b1-2)[Gal(b1-4)GlcNAc(b1-6)]Man(a1-6)[GlcNAc(b1-4)][Gal(b1-4)GlcNAc(b1-2)Man(a1-3)]Man(b1-4)GlcNAc(b1-4)GlcNAc
# Summary of the method: as §1
# [7] = target: Gal(b1-4)GlcNAc(b1-3)Gal(b1-3)GlcNAc
# Summary of the method: as §1
# [8] = target: Gal(b1-4)GlcNAc(b1-3)Gal(b1-4)Glc
# Summary of the method: as §1
# [9] = target: Gal(b1-4)GlcNAc(b1-3)Gal(b1-4)GlcNAc
# Summary of the method: as §1
# [10] = target: Gal(b1-4)GlcNAc(b1-3)Gal(b1-4)GlcNAc(b1-3)Gal(b1-4)GlcNAc
# Summary of the method: as §1
# [11] = target: Gal(b1-4)GlcNAc(b1-3)Gal(b1-4)[Fuc(a1-3)GlcNAc(b1-6)]Gal(b1-4)Glc
# Summary of the method: as §1
# [12] = target: Gal(b1-4)GlcNAc(b1-3)Gal(b1-4)[Fuc(a1-3)]GlcNAc(b1-3)Gal(b1-4)[Fuc(a1-3)]GlcNAc
# Summary of the method: as §1
# [13] = target: Gal(b1-4)GlcNAc(b1-3)GalNAc
# Summary of the method: as §1
# [14] = target: Gal(b1-4)GlcNAc(b1-3)[Gal(b1-4)GlcNAc(b1-6)]Gal(b1-4)GlcNAc
# Summary of the method: as §1
# [15] = target: Gal(b1-4)GlcNAc(b1-3)[Gal(b1-4)GlcNAc(b1-6)]GalNAc
# Summary of the method: as §1
# [16] = target: Gal(b1-4)GlcNAc(b1-3)[GlcNAc(b1-6)]Gal(b1-4)GlcNAc
# Summary of the method: as §1
# [17] = target: Gal(b1-4)GlcNAc(b1-6)Gal(b1-4)GlcNAc
# Summary of the method: as §1
# [18] = target: Gal(b1-4)GlcNAc(b1-6)GalNAc
# Summary of the method: as §1
# [19] = target: Gal(b1-4)GlcNAc(b1-6)[Gal(b1-3)]GalNAc
# Summary of the method: as §1
# Gal(b1-4)GlcNAc6P = target: Gal(b1-4)GlcNAc6P
# Summary of the method: as §1
# Gal(b1-6)Gal = target: Gal(b1-6)Gal
# Summary of the method: as §1
# Gal3S(b1-3)GalNAc = target: Gal3S(b1-3)GalNAc
# Summary of the method: as §1
# Gal3S(b1-3)GlcNAc = target: Gal3S(b1-3)GlcNAc
# Summary of the method: as §1
# [20] = target: Gal3S(b1-3)[Fuc(a1-4)]GlcNAc
# Summary of the method: as §1
# Gal3S(b1-4)Glc = target: Gal3S(b1-4)Glc
# Summary of the method: as §1
# Gal3S(b1-4)Glc6S = target: Gal3S(b1-4)Glc6S
# Summary of the method: as §1
# Gal3S(b1-4)GlcNAc = target: Gal3S(b1-4)GlcNAc
# Summary of the method: as §1
# Gal3S(b1-4)GlcNAc6S = target: Gal3S(b1-4)GlcNAc6S
# Summary of the method: as §1
# [21] = target: Gal3S(b1-4)[Fuc(a1-3)]Glc
# Summary of the method: as §1
# [22] = target: Gal3S(b1-4)[Fuc(a1-3)]Glc6S
# Summary of the method: as §1
binder,measurement,setting,value
B1,glycan array binding signal (z-score),[1],-0.409
same,glycan array binding signal (z-score),[2],-0.334
same,glycan array binding signal (z-score),[3],-0.406
same,glycan array binding signal (z-score),[4],-0.37
same,glycan array binding signal (z-score),[5],-0.315
same,glycan array binding signal (z-score),[6],-0.353
same,glycan array binding signal (z-score),[7],-0.415
same,glycan array binding signal (z-score),[8],-0.429
same,glycan array binding signal (z-score),[9],-0.365
same,glycan array binding signal (z-score),[10],0.155
same,glycan array binding signal (z-score),[11],-0.176
same,glycan array binding signal (z-score),[12],-0.387
same,glycan array binding signal (z-score),[13],-0.3
same,glycan array binding signal (z-score),[14],-0.313
same,glycan array binding signal (z-score),[15],-0.294
same,glycan array binding signal (z-score),[16],-0.284
same,glycan array binding signal (z-score),[17],-0.397
same,glycan array binding signal (z-score),[18],-0.328
same,glycan array binding signal (z-score),[19],-0.324
same,glycan array binding signal (z-score),Gal(b1-4)GlcNAc6P,-0.178
same,glycan array binding signal (z-score),Gal(b1-6)Gal,-0.314
same,glycan array binding signal (z-score),Gal3S(b1-3)GalNAc,-0.399
same,glycan array binding signal (z-score),Gal3S(b1-3)GlcNAc,-0.309
same,glycan array binding signal (z-score),[20],-0.119
same,glycan array binding signal (z-score),Gal3S(b1-4)Glc,-0.257
same,glycan array binding signal (z-score),Gal3S(b1-4)Glc6S,0.728
same,glycan array binding signal (z-score),Gal3S(b1-4)GlcNAc,-0.163
same,glycan array binding signal (z-score),Gal3S(b1-4)GlcNAc6S,6.34
same,glycan array binding signal (z-score),[21],-0.032
same,glycan array binding signal (z-score),[22],-0.227
